In paper PMC4336329 (PLoS ONE, 2015):
The campaign covered roughly 310,000 compounds. About 2,200 (0.71%) showed an effect of 50% or more. Effects have a minus sign here. The list shows a part of the results.

Molecular target: human ether-à-go-go-related gene (hERG) potassium channel (human, UniProt Q12809)
Test: primary screen, population patch clamp on CHO cells stably expressing hERG

human ether-à-go-go-related gene (hERG) potassium channel, sequence (Q12809 whole entry, looked up): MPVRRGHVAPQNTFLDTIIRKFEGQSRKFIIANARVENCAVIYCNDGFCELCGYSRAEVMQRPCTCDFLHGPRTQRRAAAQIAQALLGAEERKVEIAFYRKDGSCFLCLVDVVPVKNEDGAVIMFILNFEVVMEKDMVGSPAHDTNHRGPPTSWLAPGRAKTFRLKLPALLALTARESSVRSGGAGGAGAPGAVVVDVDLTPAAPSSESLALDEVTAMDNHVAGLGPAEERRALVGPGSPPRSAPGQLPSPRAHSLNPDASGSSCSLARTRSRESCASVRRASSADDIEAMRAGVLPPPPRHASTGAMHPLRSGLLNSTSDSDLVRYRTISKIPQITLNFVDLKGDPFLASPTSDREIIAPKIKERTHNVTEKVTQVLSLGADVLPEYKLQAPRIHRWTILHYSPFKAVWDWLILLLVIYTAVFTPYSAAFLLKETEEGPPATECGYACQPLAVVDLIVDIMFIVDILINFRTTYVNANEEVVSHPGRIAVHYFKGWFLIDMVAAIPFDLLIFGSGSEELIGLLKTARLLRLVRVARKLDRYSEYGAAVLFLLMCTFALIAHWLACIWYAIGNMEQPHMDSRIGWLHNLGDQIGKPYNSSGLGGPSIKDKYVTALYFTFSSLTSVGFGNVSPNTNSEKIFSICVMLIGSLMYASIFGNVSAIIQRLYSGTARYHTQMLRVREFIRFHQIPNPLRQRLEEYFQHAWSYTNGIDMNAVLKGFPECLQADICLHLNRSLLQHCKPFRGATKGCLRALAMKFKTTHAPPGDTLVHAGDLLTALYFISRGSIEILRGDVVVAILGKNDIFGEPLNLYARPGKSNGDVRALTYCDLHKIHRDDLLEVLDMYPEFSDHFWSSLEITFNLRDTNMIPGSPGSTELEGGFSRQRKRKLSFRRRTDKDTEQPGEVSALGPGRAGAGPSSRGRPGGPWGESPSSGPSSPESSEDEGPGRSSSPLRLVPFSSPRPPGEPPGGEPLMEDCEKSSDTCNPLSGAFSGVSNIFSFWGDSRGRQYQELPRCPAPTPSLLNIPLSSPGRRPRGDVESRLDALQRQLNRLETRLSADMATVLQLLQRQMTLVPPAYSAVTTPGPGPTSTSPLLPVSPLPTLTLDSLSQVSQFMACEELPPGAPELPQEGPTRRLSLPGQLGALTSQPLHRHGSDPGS

SMILES	hERG current change (%, negative = inhibition) at 1uM
CC(=O)Nc1ccc(S(=O)(=O)N(CC(=O)O)Cc2ccccc2)cc1	10.2%
COc1ccc(C)c2sc(N(CCCN(C)C)C(=O)c3ccc4c(c3)OCCO4)nc12.Cl	-16.6%
CC(NC(=O)COC(=O)/C=C/c1ccc(Cl)cc1)c1ccccc1 (stereo not shown)	8.41%
CCOP(=O)(OCC)C1(O)C(=O)Nc2ccc(Br)cc21 (stereo not shown)	-0.105%
CC1CCN(c2c(NCC3CCC(C(=O)N4CCCC(C)C4)CC3)c(=O)c2=O)CC1 (stereo not shown)	10.3%
Cc1cc(O)c(NC(=O)c2cccc([N+](=O)[O-])c2)cc1C	8.03%
CCC1=NN(C(=O)COc2ccccc2)C(O)(c2ccncc2)C1 (stereo not shown)	18.6%
CC1=Nc2ccccc2N=C(NC(=O)/C=C/C(=O)O)C1c1ccccc1 (stereo not shown)	7.39%
COc1ccc(N(CC(=O)NCc2ccncc2)S(=O)(=O)c2ccc(C)c([N+](=O)[O-])c2)cc1	-15.1%
CCOC(=O)c1c(NC(=O)CN2C(=O)C(=O)N(CC(C)C)C2=O)sc(C)c1CC	16%
CCc1cccc2c(C#N)cn(CC(=O)NCc3ccco3)c12	18.9%
CCOC(=O)C1=C(CN2CCN(C(=O)c3ccco3)CC2)NC(=O)NC1c1ccccc1 (stereo not shown)	5.9%
Cc1nc2ccccc2c(=O)n1NC(=O)C1CC1C (stereo not shown)	12.9%
O=C(C1COc2ccccc2O1)N1CCn2c(nc3ccccc32)C1 (stereo not shown)	-15.7%
CCc1nc(N2CCN(C(=O)CCl)CC2)c2c3c(sc2n1)CC(C)CC3 (stereo not shown)	9.17%
CC(C)n1cnc2c(NCc3ccc(S(N)(=O)=O)cc3)nc(NCc3ccc(S(N)(=O)=O)cc3)nc21	12.9%
O=C(NCC1CCCN1S(=O)(=O)c1cccs1)C(=O)Nc1ccc(F)cc1F (stereo not shown)	10.8%
O=[N+]([O-])c1ccc(Cc2nnc(-c3ccccc3Cl)o2)cc1	14.3%
O=C(NC(Cc1ccccc1)C(=O)O)/C(=C\c1ccc(F)cc1)NC(=O)c1ccco1 (stereo not shown)	9.24%
CC(=O)N1c2ccc(S(=O)(=O)NCC3CCC(C(=O)N4CCC(C)CC4)CC3)cc2CC1C (stereo not shown)	9.45%
COc1ccc(S(=O)(=O)NCCN2CCNC2=O)cc1OC	13.6%
CCOC(=O)c1c(NC(=O)CSc2nnc(CNC(=O)c3ccco3)n2C)sc2c1CCC2	6.18%

SMILES	hERG current change (%, negative = inhibition) at 1uM
O=C(COC(=O)/C=C/c1ccc(S(=O)(=O)N2CCOCC2)cc1)NCc1ccc2c(c1)OCO2	18.8%
CN(C)NC(=O)C12CCC(C)(C(=O)O1)C2(C)C (stereo not shown)	30.6%
Fc1cccc(CO/N=C/c2c(-c3ccccc3)nc3ccc(Cl)cn23)c1	13.8%
COC(=O)c1sccc1NC(=O)Nc1ccc(C)cc1C	11.5%
O=c1c2ccccc2nc(CSc2ncnc3nc[nH]c23)n1-c1ccc(Cl)c(Cl)c1	9.51%
Cc1ccc(NC(=O)c2cncc(Br)c2)nc1	2.25%
CCCCCn1c(=O)c(C(=O)c2ccccc2)nc2ccccc21	-52.5%
CCCCN1C[C@H](C)[C@@H](CC(=O)NCc2ccccc2)C1=O	-1.29%
CC(C)c1ccc(NC(=O)CCC(=O)NCc2ccco2)cc1	7.99%
COc1cccc(N=c2oc3cc(O)ccc3cc2C(=O)NCC2CCCO2)c1 (stereo not shown)	14.9%
CCOC(=O)[C@@H]1[C@H]2COc3cc(OC)ccc3[C@@H]2N2C(=O)N(c3cccc(F)c3)C(=O)[C@]12C	7.21%
CC(NC(=O)C1CCCN(C(=O)c2ccc(Cl)cc2)C1)c1cccc(C(F)(F)F)c1 (stereo not shown)	-5.71%
NC(=O)c1c(NC(=O)COC(=O)CSc2nnc(-c3ccc(Cl)cc3)o2)sc2c1CCC2	11.4%
CC(C)NCCOCCOc1ccccc1F.O=C(O)C(=O)O	4.39%
Cc1ccc2cccc(OCc3ccccc3)c2n1	8.71%
CCC(C)NC(=O)Cn1c(=O)n(CCCCC(=O)NCc2ccco2)c(=O)c2ccccc21 (stereo not shown)	11.4%
O=C(Nc1ncc(Cc2ccccc2Cl)s1)C1=NCCN1	10%
Cc1ccccc1C(=O)N1CCC(C(=O)Nc2ccc(S(=O)(=O)N3CCCCC3)cc2)CC1	3.41%
O=C(O)C(=O)O.O=C(c1cccnc1)N1CCN(CCCc2ccccc2)CC1	-2.89%
Cc1cc(C(=O)NCc2ccccc2Br)no1	9.66%
COc1ccc(-c2ccc(=O)n(CC(=O)NCc3ccco3)n2)cc1	12.5%
CC(=O)c1nn(-c2cccc(Cl)c2)cc1C(=O)c1ccco1	3.39%

SMILES	hERG current change (%, negative = inhibition) at 1uM
Cc1ccc(OCC(=O)Nc2ccc(S(=O)(=O)Nc3cc(C)nc(C)n3)cc2)cc1	16.6%
CCOc1ccc(S(=O)(=O)N2CCC(C(=O)N3CCCCCC3)CC2)cc1Cl	7.05%
COc1ccc(/C=C\C(=O)NCC(=O)N/N=C/c2cccc(OC)c2O)cc1	6.06%
O=C(Nc1ccc(N2CCOCC2)c(Cl)c1)c1ccccc1F	6.41%
S=c1nc[nH]c2c1ncn2C1CCCO1 (stereo not shown)	13.2%
O=C(O)CC(NCc1ccco1)C(=O)OCCc1ccccc1 (stereo not shown)	13.7%
CC1CN(Cc2csc(-c3ccc(Cl)cc3)n2)CC(C)O1.O=C(O)C(=O)O (stereo not shown)	17.7%
C=CCc1cccc(/C=N/NC(=O)c2ccccc2Br)c1O	-18.8%
CC(=O)Nc1c(O)nc(SCC(=O)Nc2sc3c(c2C#N)CCCCCC3)[nH]c1=O	4.02%
CC(Sc1nnc(C2CC2)n1C)C(=O)Nc1ccc2c(c1)CCC2 (stereo not shown)	4.51%
CC(C)c1cc(CN2CCN(CCC#N)CC2)cc(C(C)C)c1O	-10.2%
Cc1ccc(S(=O)(=O)n2cccc2CO)cc1	9.97%
CC(=O)c1cc2c(cc1NS(=O)(=O)c1ccccc1)OCO2	8.87%
Cc1cccc(C(=O)NC(=S)N2CCN(C)CC2)c1	-4.74%
CS(=O)(=O)N1CCC(C(=O)Nc2ccc(Cl)c(Cl)c2)CC1	15.7%
Cc1ccccc1CC1(CO)CCCN(C(=O)CCC(=O)c2ccccc2)C1 (stereo not shown)	5.59%
COC(=O)c1ccc(C[n+]2ccccc2)cc1.[Br-]	15.1%
COc1ccc(S(=O)(=O)NC(CCSC)C(=O)NC2CCCCC2)cc1 (stereo not shown)	15.3%
CN(C(=O)CCN1C(=O)C(C)(C)Nc2ccccc21)c1ccccc1	11%
CCC1=Nc2cc(C(=O)NCc3ccco3)ccc2Sc2ccc(Cl)cc21	29.8%
CC1C(=O)N2CCCc3cc(S(=O)(=O)N(C)Cc4ccccc4)cc1c32 (stereo not shown)	5.86%
CC1CCN(C(=O)c2cc3nc(C4CC4)cc(C(F)(F)F)n3n2)CC1	-7%

SMILES	hERG current change (%, negative = inhibition) at 1uM
CCCCC1C(=O)NC(=S)NC1=O	6.71%
C=CCN1C(=O)S/C(=C\c2ccc3c(c2)n(C)c(=O)n3C)C1=O	6.47%
Cc1cc([N+](=O)[O-])nn1CC(=O)c1ccccc1	0.665%
COc1cc(C(=O)NCCC(=O)NCc2c(F)cc(F)cc2F)cc(OC)c1OC	11.7%
Cc1ccc(SCc2cc(=O)[nH]c(Nc3nc(C)c4ccc(C)cc4n3)n2)cc1	17.9%
COc1cccc(/C=N/NC(=O)CNC(=O)c2cccnc2)c1O	18.6%
CCOc1ccc2c(c1)c(N=Nc1cccc(C(=O)O)c1)c(O)n2C	10.8%
COc1ccc(C(=O)CSc2nnc(-c3cccs3)n2-c2ccccc2)cc1	14.4%
CC(=O)NC(Cc1ccc(F)cc1)C(=O)NC1CCN(c2nnnn2-c2ccccc2)CC1 (stereo not shown)	10.6%
CCOC(=O)C1CCN(C(=O)c2ccc(C)c(S(=O)(=O)N3CCCC3)c2)CC1	18.1%
Cc1ccc(NC(=O)COC(=O)CSCC(=O)Nc2cc(C)on2)c(C)c1	11%
O=C(NCc1ccncc1)Nc1ccccc1Cl	3.99%
O=C(O)CCN1C(=O)c2ccc(NC(=O)CCc3ccccc3)cc2C1=O	14.7%
CC1CCCC(C)N1c1nnc(NC(=O)c2cc(-c3ccc(Br)cc3)on2)s1 (stereo not shown)	9.26%
CS(=O)Cc1cc(Sc2ccccc2)nc(-c2cccnc2)n1 (stereo not shown)	2.52%
CC(Sc1nc2ccccc2s1)C(=O)NCc1ccc2c(c1)OCO2 (stereo not shown)	0.802%
COc1ccc(C(=O)N2CCSCC2)cc1OC1CCN(C(C)=O)CC1	19.5%
CCOC(=O)c1ccc(NC(=O)C(C)NS(=O)(=O)c2ccc(OC)cc2)cc1 (stereo not shown)	8.79%
COc1ccc(C(=O)CN2C(=O)NC3(CCCCCC3)C2=O)c(OC)c1	-0.544%
CC(C)c1cc(Br)ccc1OCCN1C(=O)NC(C)(C)C1=O	10.7%
COc1ccc(-n2cc(CNC3CCN(C)CC3)c(-c3cccc(F)c3)n2)cc1	-64.4%
O=C(Nc1ccccc1C(F)(F)F)c1ncn[nH]1	6.12%
